In publication PMC11110689:
Results are given in words; binding and its absence hold for the method and conditions named. For some of these results: Binding seen in cells or lysates may run through a third protein. Some binding calls cover weakened binding; strength is not graded here. For some of these results: Sequences can lack the tags named with a protein.

T1: NF-κB inhibitor β (IκBβ), FLAG-tagged (IκBβ-FLAG) (human) (UniProt Q15653)
T1 sequence: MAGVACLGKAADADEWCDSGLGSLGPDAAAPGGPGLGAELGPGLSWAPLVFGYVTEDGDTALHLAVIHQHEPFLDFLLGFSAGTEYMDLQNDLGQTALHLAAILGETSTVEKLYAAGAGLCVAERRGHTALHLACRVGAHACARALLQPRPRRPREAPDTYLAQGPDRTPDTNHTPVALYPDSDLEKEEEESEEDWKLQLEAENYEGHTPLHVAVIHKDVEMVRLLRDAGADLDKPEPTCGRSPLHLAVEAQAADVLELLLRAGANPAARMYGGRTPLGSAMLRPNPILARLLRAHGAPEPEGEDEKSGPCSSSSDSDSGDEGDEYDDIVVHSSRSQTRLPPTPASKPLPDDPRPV

T2: FIH L340R (UniProt Q9NWT6)
T2 sequence: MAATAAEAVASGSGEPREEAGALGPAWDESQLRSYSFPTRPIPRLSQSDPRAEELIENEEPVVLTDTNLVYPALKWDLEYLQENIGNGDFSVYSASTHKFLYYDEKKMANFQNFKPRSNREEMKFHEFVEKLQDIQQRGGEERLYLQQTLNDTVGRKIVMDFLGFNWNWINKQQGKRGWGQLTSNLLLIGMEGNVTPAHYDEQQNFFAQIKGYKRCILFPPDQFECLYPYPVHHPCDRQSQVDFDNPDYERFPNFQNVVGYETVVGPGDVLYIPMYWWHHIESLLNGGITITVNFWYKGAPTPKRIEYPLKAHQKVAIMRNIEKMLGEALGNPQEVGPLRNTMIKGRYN

B1: NF-κB subunit c-Rel (protein, UniProt Q04864 1-619)
chain: MASGAYNPYIEIIEQPRQRGMRFRYKCEGRSAGSIPGEHSTDNNRTYPSIQIMNYYGKGKVRITLVTKNDPYKPHPHDLVGKDCRDGYYEAEFGQERRPLFFQNLGIRCVKKKEVKEAIITRIKAGINPFNVPEKQLNDIEDCDLNVVRLCFQVFLPDEHGNLTTALPPVVSNPIYDNRAPNTAELRICRVNKNCGSVRGGDEIFLLCDKVQKDDIEVRFVLNDWEAKGIFSQADVHRQVAIVFKTPPYCKAITEPVTVKMQLRRPSDQEVSESMDFRYLPDEKDTYGNKAKKQKTTLLFQKLCQDHVETGFRHVDQDGLELLTSGDPPTLASQSAGITVNFPERPRPGLLGSIGEGRYFKKEPNLFSHDAVVREMPTGVSSQAESYYPSPGPISSGLSHHASMAPLPSSSWSSVAHPTPRSGNTNPLSSFSTRTLPSNSQGIPPFLRIPVGNDLNASNACIYNNADDIVGMEASSMPSADLYGISDPNMLSNCSVNMMTTSSDSMGETDNPRLLSMNLENPSCNSVLDPRDLRQLHQMSSSSMSAGANSNTTVFVSQSDAFEGSDFSCADNSMINESGPSNSTNPNSHGFVQDSQYSGIGSMQNEQLSDSFPYEFFQV
B2: NF-κB inhibitor β (IκBβ), FLAG-tagged (IκBβ-FLAG) (protein, UniProt Q15653 1-356)
chain: T1 sequence

How the values were obtained:
[1] = target: T1, NF-κB inhibitor β (IκBβ), FLAG-tagged (IκBβ-FLAG) (human); assay: co-IP; IκBβ-FLAG expressed in HEK293 cells alone or with FIH-V5; immunoprecipitated with anti-V5 or anti-FLAG antibodies, immunoblot
[2] = target: FIH-IκBβ oxomer (FIH-V5 with IκBβ-FLAG) (UniProt Q9NWT6); assay: as above
[3] = target: T2, FIH L340R; assay: immunoblot of a denaturation-resistant (SDS-PAGE) complex; HEK293 cells transiently co-transfected, normoxia; complex seen at the summed molecular weight; also with FG-4592 (0.1 mM), DM-NOFD (1 mM) or MG132 (10 μM), and with lysates treated with DTT or β-mercaptoethanol, 5 min at 95 °C; shows only complexes that resist denaturation
[4] = target: FIH H199A (UniProt Q9NWT6); assay: as above

| Binder | binding [1] | binding [2] | binding [3] | binding [4] |
| --- | --- | --- | --- | --- |
| B1 | binds | no binding | – | – |
| B2 | – | – | no binding | no binding |
